{"source": "the RNAGym collection of RNA variant scans (doi:10.7554/elife.90254)", "parents": {"B1": {"name": "LINE1-mini (parent)", "chain": "GGCAGAGCUCAACACAGCGUGGCAAAGUGGCUGUGGCUAGACUGCC"}}, "note": "Read counts are not given, so values of variants with three or more changes are uncertain."}
{"variants_of": "B1", "assay": "self-cleavage, relative activity (ratio to wild type); higher = more cleavage; in vitro, sequencing; the parent is a self-cleaving ribozyme"}
{"variant": "C13U G33C G36C G40A", "self-cleavage": 0}
{"variant": "A14G G19C G21U G40U", "self-cleavage": 0.05}
{"variant": "A14C U32G U34A", "self-cleavage": 0.01}
{"variant": "A14C G44C C46U", "self-cleavage": 0.13}
{"variant": "A14C C37A G44A", "self-cleavage": 0.05}
{"variant": "C13U G22C U43G C45A", "self-cleavage": 0.02}
{"variant": "A14G C23U C31A C45G", "self-cleavage": 0.05}
{"variant": "C13U G27A C31U G33U", "self-cleavage": 0.09}
{"variant": "A14G C15G C18U U34G A41G C42G", "self-cleavage": 0.03}
{"variant": "A14U A16C G40U", "self-cleavage": 0.09}
{"variant": "A14C C15A C23G", "self-cleavage": 0.04}
{"variant": "A14C G36U A39U A41U", "self-cleavage": 0.06}
{"variant": "A14G C18U C42A", "self-cleavage": 0.05}
{"variant": "A14G A16U G35A C46A", "self-cleavage": 0.06}
{"variant": "A14C G22U A26C C45U", "self-cleavage": 0.06}
{"variant": "A14G C18A G21A G27U C31G G33A C37A", "self-cleavage": 0.02}
{"variant": "C13U U20G G30A U34A G36A C45U", "self-cleavage": 0.05}
{"variant": "C13U G35U A39U C46G", "self-cleavage": 0.02}
{"variant": "A14G A16C G40C", "self-cleavage": 0.03}
{"variant": "A14G C18G C45U", "self-cleavage": 0.16}
{"variant": "A14G C15U U43A C45U", "self-cleavage": 0.04}
{"variant": "A14G G33U U38A", "self-cleavage": 0.05}
{"variant": "C13U G36A A41G", "self-cleavage": 0.05}
{"variant": "A14C G22U G27C G36U", "self-cleavage": 0.03}
{"variant": "A14C G21A G35U", "self-cleavage": 0.02}
{"variant": "C13U U28C A41U", "self-cleavage": 0.14}
{"variant": "A14G G27A G33A G35C G40C", "self-cleavage": 0.02}
{"variant": "A14C A16C G19U G44C", "self-cleavage": 0.05}
{"variant": "C13U U20G G22A", "self-cleavage": 0.13}
{"variant": "A14G G22C G33A", "self-cleavage": 0.03}
{"variant": "A14G A16G G36C U43A", "self-cleavage": 0.01}
{"variant": "A14C A26G G33C", "self-cleavage": 0.02}
{"variant": "A14C G40U C46A", "self-cleavage": 0.07}
{"variant": "C13U G33U G36U G44C", "self-cleavage": 0.11}
{"variant": "C13U U28C C42A C45A", "self-cleavage": 0.02}
{"variant": "A14C A16U G19U G33C", "self-cleavage": 0.99}
{"variant": "C13U U32A G35C G44A", "self-cleavage": 0.06}
{"variant": "A14G U20G C23A", "self-cleavage": 0.03}
{"variant": "A14G G35A G40U", "self-cleavage": 0.09}
{"variant": "A14G G21U U28A U38A A41G", "self-cleavage": 0.04}
{"variant": "A14G C23A A41C", "self-cleavage": 0.01}
{"variant": "A14C G17A G19A G33U G35C", "self-cleavage": 0.04}
{"variant": "A14G G19U G30U", "self-cleavage": 1.25}
{"variant": "A14C U28C C42A", "self-cleavage": 0.04}
{"variant": "A14U A16G G19U G27A U38G", "self-cleavage": 0.02}
{"variant": "A14C C31G U34A", "self-cleavage": 0.01}
{"variant": "A14G C18G C23G A24C C31G", "self-cleavage": 0.02}
{"variant": "A14C G19C G22A C23A A25C U28C U38A C46A", "self-cleavage": 0.08}
{"variant": "A14G G19A G22C", "self-cleavage": 0.12}
{"variant": "A14C G22U A24C G36U", "self-cleavage": 0.01}
{"variant": "A14G C31A A39U", "self-cleavage": 0.04}
{"variant": "C13U G29U G40U", "self-cleavage": 0.1}
{"variant": "A14C G22A G35C", "self-cleavage": 0.06}
{"variant": "C13U G33C A41C G44U", "self-cleavage": 0.05}
{"variant": "A14C G36U G40C", "self-cleavage": 0.14}
{"variant": "A14C U20C G22C U32C", "self-cleavage": 0.09}
{"variant": "A14C A25G U34A G36C C42G", "self-cleavage": 0.01}
{"variant": "A14C A16G G44A C45U", "self-cleavage": 0.08}
{"variant": "A14C G19C G22C C46G", "self-cleavage": 0.02}
{"variant": "A14C A24C G40U", "self-cleavage": 0.1}
{"variant": "A14C G19A A24U U28G", "self-cleavage": 0.01}
{"variant": "A14G C15U G17U A39U", "self-cleavage": 0.06}
{"variant": "A14G G30C U34A", "self-cleavage": 0.08}
{"variant": "A14C A41C G44A", "self-cleavage": 0.03}
{"variant": "A14C G19C A24C G29A G36A C37G", "self-cleavage": 0.05}
{"variant": "A14C G29C G35U C45G", "self-cleavage": 0.01}
{"variant": "A14G U34G G36U", "self-cleavage": 0.07}
{"variant": "A14G C23U U28C G29A U32A U34C G36A U38G G40A", "self-cleavage": 0.68}
{"variant": "A14G A24C G30C A41C C42G G44U", "self-cleavage": 0.07}
{"variant": "A14G A26C G35C", "self-cleavage": 0.13}
{"variant": "A14G C18G G30A", "self-cleavage": 0.32}
{"variant": "A14C G27U G30C C31G", "self-cleavage": 0.02}
{"variant": "A14C G33A C46G", "self-cleavage": 0.09}
{"variant": "A14C G33A C46U", "self-cleavage": 0.1}
{"variant": "A14G C42U C45A", "self-cleavage": 0.04}
{"variant": "A14U A16G G19U U38C", "self-cleavage": 0.22}
{"variant": "A14C U28C G33U", "self-cleavage": 0.02}
{"variant": "A14C C15A A16C", "self-cleavage": 0.03}
{"variant": "A14C G35U C45G", "self-cleavage": 0.05}
{"variant": "A14G G21A G30A", "self-cleavage": 0.28}
{"variant": "A14C G19C G22A", "self-cleavage": 0.03}
{"variant": "A14G G21U G35U C42U", "self-cleavage": 0.11}
{"variant": "A14C U20C C23G", "self-cleavage": 0.03}
